# In PubChem BioAssay (NCI):
#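 Protocol summary: plate cells (96-well), add compound at 5 concentrations, incubate 48 h, interpolate endpoints linearly. The concentration for 50% growth inhibition is given as GI50.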 Certain results were filed several times, with different values. They are shown here; other results are not. The source may hold further records. For some of these results: Values given together repeat one measurement in other runs, samples, wells, individuals or studies. Records carry a tag for their origin. Letters hold for one entry only.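 TGI: concentration producing complete growth inhibition.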 For some of these results: Records of one sample usually come from different ranges of test concentrations, not given here; some values may only mark the edge of a range.
# Assays:
# Test in all cases: inhibition of tumour cell growth, NCI panel, 48 h
# CAKI-1 renal = test system: CAKI-1 renal
# HCT-116 colon = test system: HCT-116 colon
# K-562 leukemia = test system: K-562 leukemia
# CCRF-CEM leukemia = test system: CCRF-CEM leukemia
# RXF-631 renal = test system: RXF-631 renal
# A549 NSCLC = test system: A549 NSCLC
# M14 melanoma = test system: M14 melanoma
# RPMI-8226 leukemia = test system: RPMI-8226 leukemia
# MOLT-4 leukemia = test system: MOLT-4 leukemia
# SR leukemia = test system: SR leukemia
# NCI-H226 lung = test system: NCI-H226 lung
smiles,measurement,setting,value
CN(C)C[C@H]1CC[C@@H](CN(C)C)C1=O,TGI,CAKI-1 renal,954 nM and 16 µM
C[C@]12O[C@H](C[C@]1(O)CO)n1c3ccccc3c3c4c(c5c6ccccc6n2c5c31)CNC4=O,TGI,HCT-116 colon,"2.73 µM [sample A, mean of 2 tests] and > 34.3 µM [sample B, mean of 2 tests]"
same,TGI,CAKI-1 renal,"337 nM [sample A, mean of 2 tests] and 4.2 µM [sample B, mean of 2 tests]"
same,GI50,K-562 leukemia,"42.7 nM [sample A, mean of 2 tests] and 572 nM [sample B, 1 test]"
same,TGI,CCRF-CEM leukemia,"566 nM [sample A, mean of 2 tests] and 6.68 µM [sample B, mean of 2 tests]"
C/C1=C\[C@H](C)C[C@H](C)OC(=O)C[C@H](c2ccc(O)cc2)NC(=O)[C@@H](Cc2c(Br)[nH]c3ccccc23)N(C)C(=O)[C@H](C)NC(=O)[C@@H](C)C1,TGI,RXF-631 renal,646 nM and > 100 µM
same,TGI,A549 NSCLC,657 nM and 31.5 µM
same,TGI,M14 melanoma,624 nM and 8.63 µM
CN(C)c1ccc(/C=C2\C[C@H]3[C@@H]4CC=C5C[C@@H](N6CCCC6)CC[C@]5(C)[C@H]4CC[C@]3(C)[C@H]2O)cc1,TGI,RPMI-8226 leukemia,2.34 µM and 25 µM
same,TGI,MOLT-4 leukemia,9.59 µM and > 100 µM
same,TGI,K-562 leukemia,5.06 µM and > 100 µM
same,TGI,SR leukemia,1.94 µM and > 100 µM
same,TGI,NCI-H226 lung,1.49 µM and 36.1 µM
